Data reported in article PMC7819943, “Rice protein-binding microarrays: a tool to detect cis-acting elements near promoter regions in rice”.
The other results are listed elsewhere or left out.

These sequences were tested against T1, OsWOX13 (Oryza sativa, UniProt Q5QMM3 1-267) (assay: protein-binding microarray (RPBM); PBS, 2% BSA, 51.3 ng/ul salmon testes DNA, 50 uM zinc acetate, 200 nM TF, 25 C, 1 h; high values mean tight binding). Details: protein: recombinant; tags: N-terminal polyhistidine and DsRed monomer fusion (pET32a); label: CyDye5-dUTP incorporated in the synthesized complementary strand; 3' TTTTT single-stranded linker to array surface; dsDNA, one strand shown.
T1 sequence: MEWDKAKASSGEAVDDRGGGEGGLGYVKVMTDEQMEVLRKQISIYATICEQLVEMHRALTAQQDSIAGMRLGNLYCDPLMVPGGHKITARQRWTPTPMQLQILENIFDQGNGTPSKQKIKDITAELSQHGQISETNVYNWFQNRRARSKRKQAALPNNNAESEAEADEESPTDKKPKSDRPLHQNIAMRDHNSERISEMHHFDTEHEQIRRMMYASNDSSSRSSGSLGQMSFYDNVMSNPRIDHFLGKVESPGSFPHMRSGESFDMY
Summary of the method: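 Transcription factors, each fused N-terminally to a polyhistidine tag and DsRed, were expressed in E. coli BL21-CodonPlus and purified on Ni–NTA. A custom Agilent array was made double-stranded by primer extension with Cy5-dUTP and blocked with 2% BSA. It was incubated with 200 nM protein in PBS, 2% BSA, salmon testes DNA and 50 µM zinc acetate at 25 °C for 1 h, then washed. The binding signal is per-feature fluorescence intensity (arbitrary units) read on an Axon 4000B scanner.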
“AAGTCCCTAATCACCGTCTGGACGCCGTGGTGACCATGGCCGGAGTCACCTAGTGCAG” was tested, and the binding signal was 3520 fluorescence intensity (a.u.).
With “GCCATAATTACGCAGGCCGCCATCGTCGTCGTCGTCTTCGCGGAGTCACCTAGTGCAG” the binding signal was 12600 fluorescence intensity (a.u.).
With “CCGGTAAATCACTAATAACCGGCACCTATGAGACATATGCCGGAGTCACCTAGTGCAG” the binding signal was 5240 fluorescence intensity (a.u.).
For “GATAAATTATACATGAGAAAGAGCTAGAATCCTTCTCAAACGGAGTCACCTAGTGCAG”, the binding signal was 8110 fluorescence intensity (a.u.).
With “ATATTAATTTATCTTCTACTTAATAACAATAATAGTGTAGCGGAGTCACCTAGTGCAG” the binding signal was 17700 fluorescence intensity (a.u.).
For “CATGCTGATAATTGGAACGCTATATTGTTTTGTAATAGTACGGAGTCACCTAGTGCAG”, the binding signal was 9350 fluorescence intensity (a.u.).
In the case of “TCAGCTTAATTTAAACGGTTCTTTGCTTTCCTGTAATATACGGAGTCACCTAGTGCAG”, the binding signal is reported as 7320 fluorescence intensity (a.u.).
With “ACCAATCAATCAAGAACAAGAAGAGCTAGCTGCTAGCTGTCGGAGTCACCTAGTGCAG” the binding signal was 17000 fluorescence intensity (a.u.).
With “ACCAGACATGCATTTGTGATTAAACTCCTGCAATATACTACGGAGTCACCTAGTGCAG” the binding signal was 4290 fluorescence intensity (a.u.).
With “AAGTAATCACACACGTCTAATCACGGTGAGGCCACGCGAGCGGAGTCACCTAGTGCAG” the binding signal was 4410 fluorescence intensity (a.u.).
With “AAATTAGATTGAATTTTGATGGCATGTTACGCTGTGTTCGCGGAGTCACCTAGTGCAG” the binding signal was 51100 fluorescence intensity (a.u.).
With “GTTTCATTTTAATTGACGTTTTGGACAATGACACGGTCTACGGAGTCACCTAGTGCAG” the binding signal was 23000 fluorescence intensity (a.u.).
“CGAGACTATCATCTAATGGACAACTCATCTTTTAATTGTGCGGAGTCACCTAGTGCAG” was tested, and the binding signal was 4330 fluorescence intensity (a.u.).
With “CATCTTGATTATGTTACATACAGATTGCAGGATGGATATTCGGAGTCACCTAGTGCAG” the binding signal was 23000 fluorescence intensity (a.u.).
In the case of “TATATATATATATATATATATATATATATGATAATTTGTTCGGAGTCACCTAGTGCAG”, the binding signal is reported as 8270 fluorescence intensity (a.u.).
With “GGGGCATTTTGAAATGGATGATTTGAACCGATTATAAAAGCGGAGTCACCTAGTGCAG” the binding signal was 3980 fluorescence intensity (a.u.).
With “AATTACAATGTAATTATATCACGATTATATTATTACTTACCGGAGTCACCTAGTGCAG” the binding signal was 11000 fluorescence intensity (a.u.).
With “ATAGATGACATTTATGTAATTTATTTTCATAAGACGAATGCGGAGTCACCTAGTGCAG” the binding signal was 21900 fluorescence intensity (a.u.).
In the case of “CGTTGATTTTATTTGGCAGGGAAGGAGATCCGAGAGGAAGCGGAGTCACCTAGTGCAG”, the binding signal is reported as 18800 fluorescence intensity (a.u.).
In the case of “CTGACCAACGTTGATAATTGCAATATTATAGTTATGGTGACGGAGTCACCTAGTGCAG”, the binding signal is reported as 4410 fluorescence intensity (a.u.).
“TCTGATTTCAGTGGGAATGCATCTCTTTTCCAGCGGATCACGGAGTCACCTAGTGCAG” was tested, and the binding signal was 4850 fluorescence intensity (a.u.).
With “AAATAAATTTGACGTGAAGTGGAATGACAGCTGGTGAACTCGGAGTCACCTAGTGCAG” the binding signal was 11400 fluorescence intensity (a.u.).
With “ATTGTGTGATTTATCTTGTTTTAAAGATTTAATTGCCATGCGGAGTCACCTAGTGCAG” the binding signal was 18400 fluorescence intensity (a.u.).
With “GTATAATTGGAGTTTGTAAAGTTCGTTTCTTGTAAGGGAACGGAGTCACCTAGTGCAG” the binding signal was 36800 fluorescence intensity (a.u.).
For “TGATTAATTAGCGAGAGTAATTAATTAATTATAGCCTGCGCGGAGTCACCTAGTGCAG”, the binding signal was 61600 fluorescence intensity (a.u.).
In the case of “ATTTAACGTGATAACTGTTTGTTTCAATGGATATCTAATGCGGAGTCACCTAGTGCAG”, the binding signal is reported as 6540 fluorescence intensity (a.u.).
In the case of “AGCATAAGTTATCTGAGTTAATTACAGTTGCTCAGCATTCCGGAGTCACCTAGTGCAG”, the binding signal is reported as 4180 fluorescence intensity (a.u.).
With “ATGCTCACTGATTTAATTTGAAATCGTTGCTCCATTTCACCGGAGTCACCTAGTGCAG” the binding signal was 21900 fluorescence intensity (a.u.).
In the case of “TTAGTAATTGAACTTGATTCTCTCTTCGTTTCAGGTTATACGGAGTCACCTAGTGCAG”, the binding signal is reported as 44300 fluorescence intensity (a.u.).
With “ATTGACATGGAGTCATGGACACTCTCCCTGCCTCCTCCCTCGGAGTCACCTAGTGCAG” the binding signal was 3240 fluorescence intensity (a.u.).
In the case of “AGTCAATCAGTCAATCTGGACCGTCCACGGCAGAAGAAGTCGGAGTCACCTAGTGCAG”, the binding signal is reported as 30700 fluorescence intensity (a.u.).
With “ATATTAATTTACTCCAATTTATATACTCCACGACAGGAGCCGGAGTCACCTAGTGCAG” the binding signal was 39500 fluorescence intensity (a.u.).
For “AAGAAGATTAGAATGAAACCATCGAAAAGCCTCGTTCGTCCGGAGTCACCTAGTGCAG”, the binding signal was 5250 fluorescence intensity (a.u.).
For “ACATTTTAATTTGTAGGGAGAGGTACTATGGGCTTAACTTCGGAGTCACCTAGTGCAG”, the binding signal was 6450 fluorescence intensity (a.u.).
For “GTCATCTGATTGTCGTCCATTGTCTCAGTGTCTGTCTGTCCGGAGTCACCTAGTGCAG”, the binding signal was 17800 fluorescence intensity (a.u.).
With “GATTAGCTTTGTGATTAGTAAGCAACTTAACACAAGATAGCGGAGTCACCTAGTGCAG” the binding signal was 5060 fluorescence intensity (a.u.).
With “TCGTTCTTCATGGTTGGGGCTGATTAGGTTGATGAGATAGCGGAGTCACCTAGTGCAG” the binding signal was 3850 fluorescence intensity (a.u.).
In the case of “CCTGAGCAATCATGTGTCTTATATATTTGCCATGATGCATCGGAGTCACCTAGTGCAG”, the binding signal is reported as 6770 fluorescence intensity (a.u.).
“TGATTTATTAATTACACATATGATTTAAGTTCTAAATGATCGGAGTCACCTAGTGCAG” was tested, and the binding signal was 30600 fluorescence intensity (a.u.).
“ACCATAATTACATCTGTCAAATTTCTAGAAGAAAAGTTGTCGGAGTCACCTAGTGCAG” was tested, and the binding signal was 42200 fluorescence intensity (a.u.).
With “GGTTAATTGTGGATCGGGTGCGCCGTGATGGTGCGTGCACCGGAGTCACCTAGTGCAG” the binding signal was 30100 fluorescence intensity (a.u.).
For “TGCTCTAAATTTTCTTATTAATTTTATGATCTTGTGATGGCGGAGTCACCTAGTGCAG”, the binding signal was 9820 fluorescence intensity (a.u.).
